Data: PubChem BioAssay AID686978 (National Center for Advancing Translational Sciences (NCATS), 2013)
Values joined by “and” are separate entries in the source; they are usually repeats but may differ in a detail not shown here. Equal entries are not always repeated. Hit rate of the full screen: of about 420,000 compounds, about 64,000 (15%) were called active. Inconclusive results, whose numbers are uncertain, are shown with a selection of clear calls. Calls come from the whole dose curve; as a rule, active = well fitted inhibition curve with a large enough effect; inconclusive = small, poorly fitted or top-dose-only effect; inactive = flat fitted curve, though single readings scatter. Potencies beside an inconclusive call are fits to weak or partial responses and may not hold up.

experiment: qHTS for Inhibitors of human tyrosyl-DNA phosphodiesterase 1 (TDP1): qHTS in cells in absence of CPT; conditions: DT40 Tdp1-/- hTDP1 cells, no CPT, ATP luminescence, 48 h; activity change, negative = growth inhibition: at 46.2 µM (top of the series) unless noted; note: nearly all actives have a fitted effect of over 55% in size
Outline: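 Growth kinetics read by CellTiter-Glo luminescence after ≥48 hr at 37 °C. Cells: DT40 Tdp1-/- stably carrying human TDP1, 400 per well, compound exposure in the absence of CPT (DMSO vehicle).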
% is set by controls: 0 for no effect and ±100 for the full control effect; potency is the fitted concentration of half-maximal effect; tags give direction and shape of the fitted curve.

Row | Structure (SMILES) | Potency | activity change, negative = growth inhibition
1 | Cc1ccc(-c2c3c(=O)n(C)c(=O)n(C)c3c3c(-c4cccc(C)c4)nc4ccccc4n23)cc1 | inconclusive: 4.61 µM [inhibitor, partial curve] | –
2 | COc1ccccc1C(=O)Nc1nc2ccc(S(C)(=O)=O)cc2s1 | inconclusive: 25.9 µM [inhibitor, single point] | –
3 | Cc1ccc(C)c(Cn2c3ccccc3c3cnn(CC(=O)NC4CCCCCC4)c(=O)c32)c1 | active: 13 µM | –
4 | COc1ccc(Cl)c(-c2cc(C(=O)NCc3ccc(C(F)(F)F)cc3)[nH]n2)c1 | inconclusive: 29.1 µM [inhibitor, single point] | –
5 | COc1ccc(/C=C/c2cc(OC)c(OC)cc2CC[N+](C)(C)C)cc1 | – | inactive: -17.4% [at 9.04 µM]
6 | O=C(CN1CCCCCC1)Nc1ccc(Br)cc1Br | inconclusive: 20.6 µM [inhibitor, single point] | –
7 | FC(F)(F)Oc1ccccc1C(c1nnnn1C1CCCCC1)N1CCN(C/C=C/c2ccccc2)CC1 (centres undefined) | inconclusive: 29.1 µM [inhibitor, partial curve, poor fit] | –
8 | O=C(Nc1ccc(NC(=O)c2cccs2)cc1)c1ccc(Br)o1 | inconclusive: 18.4 µM [inhibitor, single point] | –
9 | O=C(O)CNC(=O)c1nc(-c2ccccc2)n(-c2ccccc2)n1 | inactive | –
10 | Cc1ccc(C(=O)c2c(NC(=O)c3ccccc3)sc(C)c2C)cc1 | active: 23.1 µM | –
11 | COc1ccc(-c2cc(OC(=O)c3cccc(Cl)c3)c3c(C)oc(C)c3c(=O)c2)cc1OC | inconclusive: 23.1 µM [inhibitor, single point] | –
12 | COc1ccc(Cl)cc1CC1(C)C(=O)Nc2c(Cl)cccc21 (centres undefined) | active: 23.1 µM | –
13 | O=c1[nH][nH]c2c(N=Cc3ccccc3O)ccc(F)c12 | inconclusive: 20.6 µM [inhibitor, single point] | –
14 | COc1cc2c(cc1OC)C(SC)=NC1(CCCC1)C2 | active: 14.6 µM | –
15 | COc1ccc(CN(Cc2ccco2)C(=O)COc2ccccc2Cl)cc1 | active: 23.1 µM | –
16 | Cc1ccc(S(=O)(=O)/N=C2/C=C(Sc3ncn[nH]3)C(=O)c3ccccc32)cc1 | active: 0.366 µM | –
17 | Oc1cccc(O)c1O | inconclusive: 29.9 µM [inhibitor, single point] | –
18 | CCc1nn(C(C)C(=O)NCCN2CCCCCC2)c(=O)c2cc3occc3n12 (centres undefined) | inactive | –
19 | COc1ccccc1/C=C/CN1CCOCC1 | inactive | –
20 | O=C(CCCOc1ccccc1)NNC(=O)c1ccncc1 | inactive | –
21 | Cc1ccc(NC(=O)/C(C#N)=C(\N)C(Cl)(Cl)Cl)nc1 | active: 2.06 µM | –
22 | O=C(CC(=O)Nc1cccc(F)c1)Nc1cccc(F)c1 | inconclusive: 32.6 µM [inhibitor, single point] | –
23 | N#Cc1nc(/C=C/c2ccc(F)cc2)oc1N1CCCCCC1 | inconclusive: 18.4 µM [inhibitor, single point] | –
24 | COc1cccc(-c2nn[nH]n2)c1O | inactive | –
25 | O=C(/C=C/c1cccc([N+](=O)[O-])c1)c1ccc([N+](=O)[O-])o1 | active: 0.164 µM | –

Row | Structure (SMILES) | Potency | activity change, negative = growth inhibition
26 | COC(=O)c1ccc(Cn2cnc3c(cnn3-c3ccc(C)c(C)c3)c2=O)o1 | inconclusive: 16.4 µM [inhibitor, single point] | –
27 | O=C(CSc1ccc(-c2ccc(F)cc2)nn1)N1CCCc2ccccc21 | inconclusive: 25.9 µM [inhibitor, single point] | –
28 | N#Cc1ccccc1OCCOCCNC1CCCC1 | inconclusive: 6.51 µM [inhibitor, single point] | –
29 | O=C(Nc1ccc(Cl)c(C(F)(F)F)c1)C1Cc2c(-c3ccccc3)ccnc2O1 (centres undefined) | inconclusive: 29.1 µM [inhibitor, single point] | –
30 | Fc1ccc(-c2nc3n(n2)Cc2ccccc2-3)cc1 | inconclusive: 8.2 µM [inhibitor, partial curve] | –
31 | CC1(C)C2CCC(C2)C1(C)NC(=O)CNCC1CCCCC1 (centres undefined) | inconclusive: 23.1 µM [inhibitor, single point] | –
32 | S=C(NCCCc1ccccc1)Nc1ccc(Cl)cc1 | inconclusive: 23.1 µM [inhibitor, single point] | –
33 | CC(NS(=O)(=O)c1ccc2c(c1)CCN2C(=O)CCCC(=O)O)c1ccccc1 (centres undefined) | inactive | –
34 | COC1=CC(=O)C[C@@H](C)[C@]12Oc1c(Cl)c(OC)cc(OC)c1C2=O | active: 16.8 µM | –
35 | COc1ccc(-n2nc(C(=O)Nc3cc(C)c(Cl)cc3OC)c3c4ccccc4n(C)c3c2=O)cc1 | inactive | –
36 | CCCCn1c(N)c(N(CC(C)C)C(=O)c2cccc(S(=O)(=O)N(C)c3ccc(C)cc3)c2)c(=O)[nH]c1=O | inconclusive: 23.1 µM [inhibitor, single point] | –
37 | Cc1nc2ccccc2n1CC(=O)N/N=C/c1cccs1 | inactive | –
38 | Cc1ccnc(NS(=O)(=O)c2ccc(N3C(=O)Nc4ccccc4N3O)cc2)c1 | inactive | –
39 | O=C(OCc1c(F)cccc1Cl)c1cccc(S(=O)(=O)N2CCOCC2)c1 | – | inconclusive: -34.1% [inhibitor]
40 | CCN(CC)c1ccc(NC(=O)Cn2nc3c(cc2=O)CCCC3)c(C)c1 | inactive | –
41 | CC1CCCCN1C(=S)Nc1ccc2nc3n(c(=O)c2c1)CCCCC3 (centres undefined) | inconclusive: 25.9 µM [inhibitor, single point] | –
42 | COC(=O)Nc1ccc(SCC(=O)c2cccc([N+](=O)[O-])c2)cc1 | active: 20.6 µM | –
43 | CCOc1ccccc1C1CC(=O)Nc2cc(OC)c(OC)cc21 (centres undefined) | inconclusive: 29.1 µM [inhibitor, single point] | –
44 | CCOC(=O)C1CCN(C(=S)Nc2ccc(Cl)cc2C)CC1 | inactive | –
45 | CC(C)c1ccc2[nH]c(O)c(N=NC(=O)c3cccc(S(=O)(=O)Nc4ccccc4Cl)c3)c2c1 | inactive | –
46 | Cc1cccc(Cn2c(Sc3nc(C)cs3)nc3c2c(=O)[nH]c(=O)n3C)c1 | active: 18.4 µM | –
47 | CN1CCCN(C(=O)c2cc(-c3cccc4ccccc34)nc3ccccc23)CC1 | active: 20.6 µM | –
48 | CC1CCC(C(C)C)C(OC(=O)C2=C3c4ccccc4S(=O)(=O)N3CC2)C1 (centres undefined) | inconclusive: 13 µM [inhibitor, partial curve, poor fit] | –
49 | O=C(CCN1CCN2CCCC2C1)N1c2ccccc2Sc2ccc(Cl)cc21 (centres undefined) | inconclusive: 26.6 µM [inhibitor, single point] and inconclusive: 16.4 µM [inhibitor, single point] | –
50 | CCOC(=O)c1cc(-c2cccs2)nc2c1c(C)nn2-c1ccccn1 | active: 14.6 µM | –

Row | Structure (SMILES) | Potency | activity change, negative = growth inhibition
51 | C/C=C(/CCC1NCCc2c1[nH]c1ccccc21)[Si](C)(C)C (centres undefined) | active: 2.91 µM | –
52 | CCCCCCNc1cc2n(c(=O)n1)CCc1cc(OC)c(OC)cc1-2 | inconclusive: 12.6 µM [inhibitor, partial curve] | –
53 | COCCNC(=S)N/N=C(\C)c1ccc2cc(OC)ccc2c1 | active: 25.9 µM | –
54 | CC(=O)Nc1ccc(O)c(-c2nc3ccccc3s2)c1 | inconclusive: 18.4 µM [inhibitor, partial curve] | –
55 | O=C(CCn1c(=O)oc2ccccc21)N(Cc1ccccc1)c1ccccn1 | inactive | –
56 | CCOC(=O)N1CCN(Cc2cn[nH]c2-c2cccc3ccccc23)CC1 | inconclusive: 4.11 µM [inhibitor, partial curve] | –
57 | COc1ccccc1N1CCN(CC(=O)Nc2ccc(C)c(F)c2)CC1 | inconclusive: 18.4 µM [inhibitor, single point] | –
58 | Cc1ccc(OCC(=O)NCC2(N(C)C)CCCCC2)cc1C | inactive | –
59 | C=CCOC(=O)C1=C(C)NC(C)=C(C(=O)OCC=C)C1c1ccco1 | inconclusive: 16.4 µM [inhibitor, single point] | –
60 | Cc1ccc2[nH]c(=O)c(CN(CCO)Cc3nnnn3Cc3ccco3)cc2c1 | inconclusive: 10 µM [inhibitor, partial curve] | –
61 | Cc1ccc(NC(=O)c2c(C)nc3sc(C(=O)Nc4ccc(F)cc4)c(N)c3c2-c2ccc(C)o2)c(C)c1 | active: 18.4 µM | –
62 | O=c1c2ccccc2nc(SCc2ccc([N+](=O)[O-])cc2)n1-c1ccccc1 | inconclusive: 20.6 µM [inhibitor, single point] | –
63 | COc1ccccc1-c1cnnc(N/N=C/c2ccc(-c3cccc(Br)c3)o2)n1 | active: 23.1 µM | –
64 | Cc1ccc(C23CC4CC(CC(C(=O)NN)(C4)C2)C3)cc1 | inactive | –
65 | Cc1ccc(CNc2oc(-c3ccc(COc4ccc(C)cc4)o3)nc2C#N)cc1 | inconclusive: 29.1 µM [inhibitor, single point] | –
66 | CCCOc1ccc(C(=O)NCC2OCCc3ccccc32)cc1 (centres undefined) | inconclusive: 29.1 µM [inhibitor, single point] | –
67 | CCOc1ccc(C(C)=O)cc1COc1ccc(-n2cnnn2)cc1 | inconclusive: 23.1 µM [inhibitor, partial curve, poor fit] | –
68 | Nc1cc(=O)[nH]c(N2CCN(c3ccccc3)CC2)n1 | inconclusive: 23.1 µM [inhibitor, single point] | –
69 | CC(C)C[C@@H](CN1CCCC1CN1C(=S)NC[C@@H]1Cc1ccc(O)cc1)N1C[C@H](Cc2ccccc2)N(CCc2ccccc2)C1=S (some centres undefined) | active: 14.6 µM | –
70 | CCn1c(SCC(=O)NNC(=O)c2ccc(C)cc2)nnc1C1CC1 | inactive | –
71 | c1ccc(-c2n[nH]c(-c3ccccn3)n2)cc1 | inconclusive: 29.1 µM [inhibitor, single point] | –
72 | CCN1CCN(C(=O)C2CCCN(S(=O)(=O)c3ccc(OC)c(OC)c3)C2)CC1 (centres undefined) | inactive | –
73 | CSCCC(=O)Nc1cc(S(=O)(=O)N2CCOCC2)ccc1N1CCN(C)CC1 | inactive | –
74 | CC(C)(C)OC(=O)NCCC(=O)N/N=C/c1ccc2nccnc2c1 | inactive | –
